Reference: ChEMBL document CHEMBL4888484, “Replenishing the malaria drug discovery pipeline: Screening and hit evaluation of the MMV Hit Generation Library 1 (HGL1) against asexual blood stage Plasmodium falciparum ,using a nano luciferase reporter read-out” (2022)
Hit rate of the full screen: of about 150,000 compounds, about 540 (0.36%) showed an effect of 50% or more. The list shows a part of the results.

Each compound was assayed on Plasmodium falciparum (assay: Primary screen in NF54 nanoGlo assay, in single point, at 2uM, 72h; a lower Z score goes with more inhibition). Conditions: timepoint 72 hour.
Type: functional, Erythrocyte

Row | SMILES | % Inhibition | Z score
1 | C[C@]1(CO)CCCN1C(=O)NCCc1csc(-c2ccccc2)n1 | -9% | 0.89
2 | COCCc1noc(Cc2cccc(F)c2F)n1 | 0% | 0
3 | N#Cc1cccc(CN(CC(F)F)C2CCS(=O)(=O)CC2)c1 | -7% | 1.21
4 | COC(=O)C1CCC(C(=O)NC(C)c2nc(-c3cccnc3)cs2)O1 (stereo not drawn) | -6% | 0.71
5 | Cn1c(CCNC(=O)[C@@H]2CNCCO2)nc2ccc(F)cc21 | 0% | -0.01
6 | O=C(NCc1nc2ccccc2s1)c1ccco1 | -6% | 0.84
7 | CCn1cc(-c2n[nH]cc2C(=O)N(C)CC(C)(C)CO)cn1 | -5% | 0.67
8 | COc1ccc(CN2C(=O)N[C@@H](CC(=O)Nc3cnn(C)c3)C2=O)cc1 | 2% | -0.23
9 | CCOc1ccc(-c2ccnc(N3CCN4CCC[C@H]4C3)n2)cc1C(=O)O | 2% | -0.18
10 | COCCC1(C(=O)N2CCC[C@H](C(=O)N3CCCC3)C2)CCCC1 | 1% | -0.1
11 | Cn1cnc(C(=O)N2CCC(Cc3ccc(CN4CCCC4)cc3)CC2)c1 | -12% | 2.39
12 | Cc1ccsc1C(Cc1ccccc1)NC(=O)NC1COCC1O (stereo not drawn) | 34% | -3.84
13 | CC1CN(CC(=O)Nc2ncc(Cc3c(Cl)cccc3Cl)s2)CC(C)O1 (stereo not drawn) | -8% | 1.18
14 | O=C(N[C@@]1(CO)CCOC1)c1cc(-c2ccncc2)on1 | 10% | -1.33
15 | c1ccc(-c2nc(-c3cccs3)[nH]c2-c2ccccc2)cc1 | 10% | -1.25
16 | CC(C)c1ncsc1C(=O)NCc1ncc(C(C)(C)C)o1 | -4% | 0.69
17 | C[C@@](CO)(NC(=O)Cn1ccccc1=O)C1CCCCC1 | -13% | 1.27
18 | O=C(Nc1ccccc1C(=O)N1CCN(Cc2ccccc2)CC1)c1cccs1 | 18% | -2.28
19 | CC1=C(CCN2CCC(CCC(=O)NCc3cccnc3)CC2)C(C)(C)CCC1 | -9% | 1.49
20 | CN(Cc1ccccc1)C1(C(=O)N2CCNC(=O)C2)Cc2ccccc2C1 | -15% | 2.87
21 | Cc1cc(C)c2c(c1)c(C)cc(=O)n2CC(=O)N1CCOCC1 | -8% | 1.13
22 | O=C(NCc1cccnc1-c1ccsc1)[C@@H]1CCCO1 | 0% | -0.03
23 | COc1ccc(CCNC(=O)c2cc3n(n2)CCN(Cc2cccc(Cl)c2)C3=O)cc1OC | -1% | 0.15
24 | Cc1nnc([C@@H]2CCCCCN2S(=O)(=O)c2ccccc2C)o1 | -15% | 2.78
25 | CN(C)C(=O)CN(Cc1csc(-c2ccoc2)n1)c1ccccc1 | 3% | -0.31
26 | O=C(c1ncccc1O)N1CCc2[nH]c(-c3cccnc3)nc2C1 | -14% | 1.25
27 | Cc1ccccc1CNC(=O)c1ccc(-n2ccc3ccccc32)s1 | 1% | -0.17

Row | SMILES | % Inhibition | Z score
28 | O=C(Cc1cccc2ccccc12)Nc1nnc(-c2cc(Cl)ccc2Cl)o1 | -4% | 0.67
29 | CN(C)c1ccc(NC(=O)C2CCOCC2)cn1 | 0% | 0
30 | Cc1noc(C)c1[C@@H](C)CNC(=O)c1csc(C(C)(C)C)n1 | -17% | 3.2
31 | COCCOCc1nc(C2CCN(C(=O)Cc3ccccc3)CC2)no1 | 0% | -0.04
32 | CCOC(=O)[C@H](NC(=O)c1ccc(C2(C#N)CC2)cc1)c1c(C)nn(-c2ccccc2)c1C | -8% | 1.48
33 | Cc1ccc2nc(NC(=O)Cn3ncccc3=O)sc2c1 | -16% | 1.87
34 | CC(C)CN1CC[C@H](N2CCN(c3cccc(C(F)(F)F)c3)CC2)[C@H](CCC(=O)NCCO)C1 | 7% | -0.9
35 | Fc1cccc(-n2cc(-c3nc4c(cnn4Cc4ccncc4)[nH]3)cn2)c1 | -8% | 1.15
36 | Cc1ccc(-c2cc(C(=O)NCc3ccc(F)cc3)ccn2)s1 | -13% | 1.72
37 | COc1ccc(-c2cnc3ncnn3c2N2CCN(S(=O)(=O)c3ccccc3OC(F)(F)F)CC2)cc1OC | -12% | 1.19
38 | Cn1cc(C=Cc2ccncn2)c(-c2ccc(C#N)cc2)n1 | 7% | -0.92
39 | CC(Cn1ncc2ccccc2c1=O)NS(=O)(=O)CC1CCOC1 (stereo not drawn) | 31% | -3.46
40 | Cc1cc(NC(=O)CCc2c(C)noc2C)n(-c2ncnc3nc[nH]c23)n1 | 2% | -0.33
41 | CNC(=O)NCC(=O)N1CCC(c2cc(C)ccc2C)CC1 | -5% | 0.74
42 | CC(=O)Nc1nc2ccc(NC(=O)NC[C@H]3CCCO3)cc2s1 | -4% | 0.61
43 | Cc1cc(C)c(C(=O)N2CC[C@@]3(CCCN(CCCc4ccccc4)C3)C2)c(=O)[nH]1 | 2% | -0.28
44 | N#CC1(OC(=O)C2CC3CCC2C3)CCC1 (stereo not drawn) | -8% | 0.86
45 | COc1ccc(F)cc1-c1ccc2nc(N)sc2c1 | 11% | -1.48
46 | O=c1[nH]nc2ccc(N3CC4CCC3C4)nn12 (stereo not drawn) | -3% | 0.54
47 | CN(CC1(C)COC1)C(=O)c1ccc(CO)cc1 | -3% | 0.37
48 | Cc1c(Cl)cc(C(=O)N(C)C2CCS(=O)(=O)CC2)cc1Cl | -14% | 1.76
49 | Cc1ccc2c(c1)C(NC(=O)N(C)Cc1cccnc1)C(C)C2 (stereo not drawn) | -13% | 1.69
50 | COc1cccc(CN2CC=C(C(=O)N3CCN(c4ccccn4)CC3)CC2)c1 | -11% | 1.66
51 | CC(C)c1ccc(-c2cc(C(F)(F)F)n3nc(C(=O)N4N=C5/C(=C/c6ccc(Cl)cc6)CCCC5C4c4ccc(Cl)cc4)cc3n2)cc1 (stereo not drawn) | -31% | 3.66
52 | CCN(C(=O)CCn1nnc2ccccc2c1=O)c1ccc2[nH]ccc2c1 | -2% | 0.25
53 | Cn1nnc2c(N3CC(C(=O)NC4CCCCCC4)C3)ncnc21 | -6% | 0.88
54 | CC(C)(C)c1ccc(C(=O)C(=O)N2CCCN(C3CC3)CC2)cc1 | -9% | 0.84
